“And” between values parts separate entries of the source, which are not always exact repeats. Equal values may be shown once. Inconclusive means that the source gave no clear call. Such entries were picked first, then a sample of the others. For some of these results: Potencies of inconclusive entries are doubtful fits and often do not repeat. The source made the active and inactive calls. Calls come from the whole dose curve; as a rule, active = well fitted curve in the direction sought with a large enough effect; inconclusive = small, poorly fitted or top-dose-only effect, or another doubt; inactive = no such curve, though single readings can be large; an effect the other way counts as inactive or inconclusive.
Assays:
[1] = Viability qHTS for spleen associated tyrosine kinase inhibitor (SYKi) naive MV4-11 cells (AID 1963823); conditions: MV4-11 AML viability, CellTiter-Glo luminescence, 72 h; viability (% of control): at 45 µM (top of the series); note: nearly all actives have a fitted effect of over 40% in size; note: potency is the fitted concentration of half-maximal effect
Method in brief: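 SYK inhibitor-naive MV4-11 cells, 500 per well, exposed to compounds for 72 hr at 37 C, 5% CO2. Viability read as CellTiter-Glo luminescence after 10 min at room temperature.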

[2] = Cellular viability qHTS for adrenocortical cancer (ACC) cell line SW-13 (AID 1963989); conditions: SW-13 ACC cells viability, CellTiter-Glo, 48 h; activity (max response): stronger effect = lower value; note: nearly all actives have a fitted effect of over 65% in size; note: potency is the fitted concentration of half-maximal effect;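 for activity (max response): cells grown in serum-free medium with ITS supplement; % is set by controls: 0 for no effect and ±100 for the full control effect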
Method in brief: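 48 h treatment, SW-13 in ITS/DMEM serum-free; doses up to 46 uM; readout CellTiter-Glo luminescence; curve fit four-parameter logistic.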

[3] = Quantitative highthroughput screen to assess conditional lethalithy of P12 Ichikawa cells grown in RPMI1640 with untreated serum (RPMI+s) (AID 1963881); conditions: Potency: viability; note: nearly all actives have a fitted effect of over 35% in size; note: potency is the fitted concentration of half-maximal effect;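 for Viability: 100% = DMSO wells and 0% = empty wells without cells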
Method in brief: (§1)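 Each medium arm—HPLM with 10% dialyzed FBS, or RPMI1640 with 5 mM glucose and 10% untreated or dialyzed FBS—was screened against an 11-point, 3-fold compound titration for 48 h at 37 °C, with CellTiter-Glo luminescence as endpoint.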

[4] = Quantitative highthroughput screen to assess conditional lethalithy of SEM cells grown in Human Plasma-Like Medium with dialyzed fetal bovine serum (HPLM+ds) (AID 1963882); note: nearly all actives have a fitted effect of over 35% in size; note: potency is the fitted concentration of half-maximal effect
Method in brief: as §1

[5] = Cellular viability qHTS for adrenocortical cancer (ACC) cell line NCI-H295R (AID 1963990); conditions: CellTiter-Glo ATP luminescence, 48 h; activity change, negative = viability loss: at 46.1 µM (top of the series); note: nearly all actives have a fitted effect of over 60% in size; note: potency is the fitted concentration of half-maximal effect;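 for activity change, negative = viability loss: 0% = DMSO only wells and -100% = full killing with cytotoxic reference compound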
Method in brief: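 Compound titrations (up to 46 uM final) are applied to NCI-H295R cultures for 48 h at 37C. Viable cell number is estimated by CellTiter-Glo signal, normalised to DMSO and doxorubicin controls.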

[6] = Quantitative highthroughput screen to assess conditional lethalithy of P12 Ichikawa cells grown in RPMI1640 with dialyzed fetal bovine serum (RPMI+ds) (AID 1963880); conditions: Potency: P12-Ichikawa viability;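 note: 100% = DMSO wells and 0% = empty wells on each plate; nearly all actives have a fitted effect of over 35% in size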
Method in brief: as §1

[7] = Quantitative highthroughput screen to assess conditional lethalithy of SEM cells grown in RPMI1640 with dialyzed fetal bovine serum (RPMI+ds) (AID 1963884); conditions: SEM B-ALL cells, RPMI+dialyzed FBS, CellTiter-Glo viability, 48 h; viability: at 45.8 µM (top of the series); note: nearly all actives have a fitted effect of over 35% in size; note: potency is the fitted concentration of half-maximal effect;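 for Viability: 100% = DMSO control wells and 0% = empty wells without cells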
Method in brief: as §1

[8] = Quantitative highthroughput screen to assess conditional lethalithy of SEM cells grown in RPMI1640 with unreated serum (RPMI+s) (AID 1963883); conditions: SEM B-ALL cells, CellTiter-Glo viability, 48 h; viability: at 45.8 µM (top of the series); note: nearly all actives have a fitted effect of over 35% in size; note: potency is the fitted concentration of half-maximal effect;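 for Viability: 100% = DMSO wells and 0% = empty wells without cells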
Method in brief: as §1
Tags give direction and shape of the fitted curve.

Structure (SMILES): O=C(N/N=C/c1ccc([N+](=O)[O-])o1)c1ccc(O)cc1
- Potency [1]: inconclusive: 29.9 µM [cytotoxic, single point]
- Potency [2]: inconclusive: 18.4 µM [cytotoxic, single point]

Structure (SMILES): C[C@H]1C[C@@H](n2c(Nc3ccc(OC(F)(F)F)cc3)nc3cc(CCC(=O)O)ccc32)CC(C)(C)C1
- Potency [1]: inconclusive: 16.6 µM [cytotoxic, partial curve, poor fit]
- activity (max response) [2]: inactive: -13.1%

Structure (SMILES): CN(C)CCN1C(=O)c2cccc3cc(N)cc(c23)C1=O
- Potency [1]: inconclusive: 3.72 µM [cytotoxic, full curve, poor fit]
- Potency [3]: active: 16.6 µM
- Potency [4]: active: 5.9 µM
- Potency [5]: active: 22.4 µM

Structure (SMILES): COC(=O)C1C2CC3c4[nH]c5cc(OC)ccc5c4CCN3CC2CC(OC(=O)c2cc(OC)c(OC)c(OC)c2)C1OC (stereo not drawn)
- Potency [1]: active: 16.6 µM
- Potency [6]: inactive
- Potency [3]: inactive
- Potency [7]: inactive
- Potency [5]: inconclusive: 28.2 µM [cytotoxic, partial curve, poor fit]

Structure (SMILES): COc1cc(C[C@@H](CO)[C@H](CO)Cc2ccc(O)c(OC)c2)ccc1O
- Potency [1]: inactive
- Potency [3]: inactive

Structure (SMILES): COc1cc(C(C)C)c(Oc2cnc(NC(CO)CO)nc2N)cc1I
- Potency [1]: inconclusive: 18.6 µM [cytotoxic, partial curve]
- Potency [8]: inconclusive: 5.26 µM [cytotoxic, full curve, poor fit]
- Potency [7]: inconclusive: 8.33 µM [cytotoxic, full curve, poor fit]
- Potency [5]: inactive

Structure (SMILES): C[C@H](CCC(=O)O)[C@H]1CCC2C3C[C@H](O)[C@@H]4C[C@H](O)CC[C@]4(C)C3CC[C@@]21C (stereo partly drawn)
- Potency [1]: inactive
- Potency [4]: inconclusive: 0.0012 µM [rising, full curve]
- Potency [7]: inconclusive: 0.0012 µM [rising, full curve]
- activity (max response) [2]: inactive: 1.86%

Structure (SMILES): CC/C(=C(/c1ccc(/C=C/C(=O)O)cc1)c1ccc2[nH]ncc2c1)c1ccc(F)cc1Cl
- Potency [1]: inconclusive: 33.2 µM [cytotoxic, single point]
- Potency [2]: inconclusive: 28.2 µM [cytotoxic, single point]

Structure (SMILES): COc1cc2ncnc(Nc3cccc(Br)c3)c2cc1OC
- Potency [1]: inconclusive: 4.61 µM [cytotoxic, partial curve] and active: 4.68 µM
- Potency [6]: inactive
- Potency [4]: inactive
- Potency [7]: inconclusive: 0.0118 µM [rising, full curve, poor fit]
- Potency [2]: inconclusive: 3.16 µM [cytotoxic, partial curve]

Structure (SMILES): CSc1cccc(Nc2ncc3cc(-c4c(Cl)cccc4Cl)c(=O)n(C)c3n2)c1
- Potency [1]: inconclusive: 0.461 µM [cytotoxic, full curve]
- Potency [4]: inconclusive: 18.7 µM [cytotoxic, partial curve]
- Potency [8]: inconclusive: 13.2 µM [cytotoxic, partial curve, poor fit]
- Potency [7]: inconclusive: 20.9 µM [cytotoxic, partial curve, poor fit]
- Potency [2]: inconclusive: 20 µM [cytotoxic, partial curve, poor fit]
- Potency [5]: inactive

Structure (SMILES): O=C1NC2CCCCN2C12CCN(CCCN1c3ccccc3CCc3ccc(Cl)cc31)CC2 (stereo not drawn)
- Potency [1]: active: 10.3 µM
- Potency [2]: inconclusive: 18.4 µM [cytotoxic, single point]

Structure (SMILES): O=c1cc(N2CCOCC2)oc2c(-c3cccc4c3sc3ccccc34)cccc12
- Potency [1]: active: 1.48 µM
- Potency [3]: inactive
- Potency [4]: inconclusive: 4.69 µM [cytotoxic, partial curve, poor fit]
- Potency [8]: inconclusive: 4.69 µM [cytotoxic, partial curve]
- Potency [7]: inconclusive: 3.72 µM [cytotoxic, full curve]

Structure (SMILES): Cc1ccc(O)cc1
- Potency [1]: inconclusive: 1.5 µM [rising, partial curve, poor fit]
- activity (max response) [2]: inactive: 11.5%

Structure (SMILES): COC(=O)N1CC2(CC2)C[C@H](C(=O)NO)[C@H]1C(=O)N1CCN(c2ccccc2)CC1
- Potency [1]: inactive
- Potency [3]: active: 2.34 µM
- Potency [8]: inconclusive: 0.148 µM [cytotoxic, full curve, poor fit]
- Potency [7]: active: 0.66 µM

Structure (SMILES): CC(NCCc1ccc(O)cc1)C(O)c1ccc(O)cc1 (stereo not drawn)
- Potency [1]: inactive
- Potency [8]: inactive
- Potency [7]: inconclusive: 0.0047 µM [cytotoxic, full curve, poor fit]

Structure (SMILES): CC(C)(O)CCc1ccc(OCc2cc(-c3cccc(OC(F)F)c3)c3ncccc3c2)cc1
- Potency [1]: inconclusive: 16.6 µM [cytotoxic, partial curve]
- Potency [6]: inactive
- Potency [3]: inactive
- Potency [4]: inactive
- Potency [8]: inactive
- Potency [2]: inconclusive: 25.1 µM [cytotoxic, single point]

Reference: PubChem BioAssay (NCATS)
